Data published in PMC4336329 (PLoS ONE, 2015).
Screen size: about 310,000 compounds; about 14,000 (4.5%) showed an effect of 50% or more. The effect is printed as a negative number. The list shows a part of the results.

target: human ether-à-go-go-related gene (hERG) potassium channel (human, UniProt Q12809); test: primary screen, population patch clamp on CHO cells stably expressing hERG
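Also: peak tail current of the secondary pulse compared with the same well before compound.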

Sequence of human ether-à-go-go-related gene (hERG) potassium channel (Q12809 whole entry, looked up): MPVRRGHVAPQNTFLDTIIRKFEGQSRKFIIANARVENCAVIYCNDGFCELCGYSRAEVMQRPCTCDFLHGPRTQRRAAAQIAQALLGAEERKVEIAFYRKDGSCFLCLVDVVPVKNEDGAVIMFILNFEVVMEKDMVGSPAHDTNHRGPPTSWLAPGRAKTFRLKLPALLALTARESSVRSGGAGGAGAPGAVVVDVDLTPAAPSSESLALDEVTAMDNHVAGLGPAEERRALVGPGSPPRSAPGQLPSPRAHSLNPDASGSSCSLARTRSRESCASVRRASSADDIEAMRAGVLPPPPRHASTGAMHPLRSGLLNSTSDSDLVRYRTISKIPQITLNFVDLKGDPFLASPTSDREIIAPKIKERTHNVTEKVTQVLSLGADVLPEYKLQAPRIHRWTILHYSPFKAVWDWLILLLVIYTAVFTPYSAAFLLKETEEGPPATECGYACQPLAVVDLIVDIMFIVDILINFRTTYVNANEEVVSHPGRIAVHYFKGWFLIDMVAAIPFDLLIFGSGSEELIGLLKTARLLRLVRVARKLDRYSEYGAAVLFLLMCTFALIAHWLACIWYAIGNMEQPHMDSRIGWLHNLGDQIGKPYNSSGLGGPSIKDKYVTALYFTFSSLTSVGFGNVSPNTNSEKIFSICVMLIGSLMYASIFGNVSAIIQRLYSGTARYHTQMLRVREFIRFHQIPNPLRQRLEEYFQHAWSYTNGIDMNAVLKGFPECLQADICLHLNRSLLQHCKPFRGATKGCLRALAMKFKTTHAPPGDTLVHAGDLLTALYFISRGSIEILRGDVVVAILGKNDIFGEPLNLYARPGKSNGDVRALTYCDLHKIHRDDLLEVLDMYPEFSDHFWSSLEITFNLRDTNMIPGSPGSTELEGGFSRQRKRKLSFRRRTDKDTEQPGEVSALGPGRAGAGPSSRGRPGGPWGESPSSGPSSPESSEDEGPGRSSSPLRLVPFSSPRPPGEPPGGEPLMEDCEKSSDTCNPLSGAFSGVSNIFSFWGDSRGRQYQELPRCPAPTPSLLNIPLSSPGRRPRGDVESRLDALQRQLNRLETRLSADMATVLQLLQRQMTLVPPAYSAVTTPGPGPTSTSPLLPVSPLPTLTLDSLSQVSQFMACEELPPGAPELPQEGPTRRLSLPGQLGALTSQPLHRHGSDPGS

| SMILES | hERG current change (%, negative = inhibition) at 10uM |
| --- | --- |
| Cc1cc(C)c(NC(=O)CSc2nnc(-c3ccco3)n2N)c(C)c1 | -14.9% |
| COc1cc(CNc2ccc(CNc3ncn[nH]3)cc2)ccc1OCc1ccccc1 | -2.36% |
| CCCCCn1c(SCCCC)nc2c1c(=O)[nH]c(=O)n2C | -3.74% |
| CC(C)(C)NS(=O)(=O)c1ccc2nc(NC(=O)c3ccc(N4C(=O)CCC4=O)cc3)sc2c1 | 13.8% |
| CCn1c(COc2ccccc2)nnc1SCC(=O)Nc1cc(OC)ccc1OC | -23.1% |
| O=C(COc1ccccc1)NC1=NCCS1 | -1.43% |
| O=C(COc1ccc([N+](=O)[O-])cc1)N(C1CCCCC1)C1CCS(=O)(=O)C1 (centres unmarked) | -37% |
| CC(C)c1nn2c(=O)cc(O)nc2s1 | -7.92% |
| CCOC(=O)CNC(=O)CSc1nnc(C)c(=O)[nH]1 | 14.5% |
| CC(=O)N1c2ccc(S(=O)(=O)N3CCCC3C(=O)Nc3cccc(F)c3)cc2CC1C (centres unmarked) | -32.8% |
| CC1(C)CC(NS(=O)(=O)c2ccc(F)cc2)CC(C)(C)N1 | -6.29% |
| COc1ccc(Cn2c(=O)oc3ccc(C)cc32)cc1OC | 7.13% |
| CCc1ccccc1NC(=O)Cn1nc(C(F)(F)F)c2c1CCC2 | 7.74% |
| CCOC(=O)c1cc(C(=O)OCC)c(=O)[nH]c1SCc1ccccc1 | 25.1% |
| Cc1cc(N2CCN(c3ccccc3F)CC2)nc2cc(O)ccc12.Cl | -1.98% |
| Cc1ccc(C(CNC(=O)C(=O)Nc2ccc3c(c2)OCCO3)N2CCN(C)CC2)cc1 (centres unmarked) | -55.5% |
| Cc1ccc([N+](=O)[O-])cc1N(CC(=O)N1CCCCC1)S(C)(=O)=O | 12.2% |
| CC1CCN(C(=O)c2[nH]cnc2C(=O)N[C@@H](C)C(=O)OCc2ccccc2)CC1 | 5.28% |
| Nc1ccc(N2CCCCC2)c(S(=O)(=O)Nc2ccccc2Cl)c1 | -17.5% |
| CCOc1ccc(NC(=O)c2ccccc2NC(=O)c2cccnc2)cc1 | 7.52% |
| CN(C)S(=O)(=O)Oc1ccsc1C(=O)Nc1ccccc1Cl | -17% |
| O=C(NCCN1CCOCC1)c1cc(-c2cccs2)nc2ccccc12 | -13.1% |
| CCC1CCCCN1CCCNC(=O)Cn1nc(-c2ccc(C)cc2)ccc1=O (centres unmarked) | -11.5% |

| SMILES | hERG current change (%, negative = inhibition) at 10uM |
| --- | --- |
| CSc1ccc(CN2CCN(Cc3ccc([N+](=O)[O-])cc3)CC2)cc1.O=C(O)C(=O)O | -78.1% |
| COc1ccc2[nH]cc(C(=O)CN3CCC(C)CC3)c2c1 | -5.75% |
| CCOc1c(Br)cc(C(N)=O)cc1OC | 17.1% |
| COC(=O)c1cc(C#N)c(N2CC(C)OC(C)C2)nc1C (centres unmarked) | 11.1% |
| CC(C)c1cc(N2CCN(C(=O)c3ccco3)CC2)n2c(nc3ccccc32)c1C#N | -34.1% |
| O=C(Nc1ccc(N2CCOCC2)cc1)Nc1ccc2nsnc2c1 | 22.3% |
| O=C(Nc1ccccc1)/C(=C\c1ccncc1)NC(=O)c1ccccc1 | -13.5% |
| CCCNC(=O)CN1C(=O)NC(CCSC)C1=O (centres unmarked) | 17.4% |
| C=CCn1c(N)nc2ccccc21.Cl | 14.7% |
| CCOc1ccccc1C(=O)Nc1nnc(SCC(=O)Nc2cc(C)on2)s1 | 11.6% |
| CCn1c(=S)sc2c(=O)n(-c3ccccc3)c(SCC(=O)NCc3ccco3)nc21 | -33.6% |
| COc1ccc(OC)c(C2C(C(=O)N(C)C)=C(C)Nc3nc4ccccc4n32)c1 (centres unmarked) | -5.5% |
| COc1ccc(Cl)cc1NC(=S)Nc1cccc(C)c1 | 10.3% |
| O=C(CNC(=O)c1ccccc1Cl)NCC(c1cccs1)N1CCOCC1 (centres unmarked) | 6.95% |
| Cc1cc(C)c(C(CC(=O)c2cccs2)C(C#N)C#N)c(C)c1 (centres unmarked) | -23.9% |
| COc1cccc2cc(C(=O)NCCc3c[nH]c4ccccc34)c(=O)oc12 | 6.45% |
| CCOCCCN(C(=O)CNC(=O)c1ccco1)C(C(=O)NC1CCCC1)c1cccc(OC)c1 (centres unmarked) | 7.5% |
| CSc1ccc(C(=O)NCC(=O)O)cc1[N+](=O)[O-] | -2.41% |
| CCc1nnc(NC(=O)c2ccc3ncsc3c2)s1 | 17.4% |
| CN1CCN(C(=O)/C(=C/c2ccccc2F)NC(=O)c2ccccc2)CC1 | -29.2% |
| COCCNC(=O)Cn1cc(/C=C(\C#N)C(=O)NC2CC2)c2ccccc21 | 10.6% |
| O=C1CCN(CCc2ccccc2)CCN1CCOc1ccccc1 | -72.8% |
| O=C(N/N=C/c1ccccc1OCc1ccccc1Cl)c1cccnc1 | -16.5% |

| SMILES | hERG current change (%, negative = inhibition) at 10uM |
| --- | --- |
| CCS(=O)(=O)NCCc1csc(-c2cccnc2)n1 | 25.5% |
| Nc1ccc(C(=O)c2cccs2)cc1 | 2.8% |
| Cc1cc(=O)[nH]c(SC(C(=O)O)c2ccccc2)n1 (centres unmarked) | -2.87% |
| COc1ccc2c(c1)CC[C@@H]1[C@@H]2CC[C@]2(C)[C@@H](C(=O)O)C[C@@H]12 | 6.23% |
| Cc1ccccc1CN1CCN(CC(=O)NCc2ccc3c(c2)OCO3)C1=O | -7.29% |
| Cc1cc(C(=O)Cn2nc(C(=O)O)c3ccccc3c2=O)c(C)n1-c1ccccc1 | 4.33% |
| CCOC(=O)Cc1csc(NC(=O)CCCC(=O)O)n1 | 20.2% |
| C=CCN1C(=O)C(C)(C)N(C(C)=O)c2ccccc21 | -15% |
| Cl.c1ccc(C2CSc3ccccc3N2)cc1 (centres unmarked) | 15.5% |
| CCOc1ccccc1N1CCN(C(=O)CC(C)(C)C)CC1 | 0.665% |
| CCCSc1nc2sc3c(c2c(=O)[nH]1)CC(C)(CC)OC3 (centres unmarked) | 27.7% |
| COc1ccc(NC(=O)N/C=C/c2ccc(Cl)cc2)cc1 | 7.59% |
| COC(=O)CCC(=O)OC1(C)C(=O)C=C2C=C(C3CC3)N(CCCOC(C)C)C=C2C1=O (centres unmarked) | 7.84% |
| CC1CCCN(CCCNC(=O)c2ccc(N3CCCC3=O)cc2)C1 (centres unmarked) | 14.1% |
| CCOc1ccccc1N1CCN(CC(=O)Nc2nc(C)c(C(=O)N(C)C)s2)CC1 | -3.21% |
| O=C1Nc2ccccc2C1=Nc1ccc(F)cc1 | 9.92% |
| CCOC(=O)N1CCN(C(=O)c2ccc3nc4ccc(Cl)cc4c(=O)n3c2)CC1 | -45.9% |
| NC(=O)CC(NC(=O)Cc1ccc(Br)cc1)c1ccc(NC2CCN(Cc3ccccc3)CC2)c([N+](=O)[O-])c1 (centres unmarked) | -45.8% |
| CCN(c1ccccc1)S(=O)(=O)c1ccc(Cl)nc1 | -2.63% |
| Nc1ccc2nc(CCCCCCCCc3nc4ccc(N)cc4[nH]3)[nH]c2c1 | 10.8% |
| COc1cc(C(=O)N/N=C/c2sc(N3CCOCC3)nc2-c2ccccc2)cc(OC)c1OC | 3.33% |
| COc1ccc(N(C)S(=O)(=O)c2cccc(C(=O)Nc3ccc(OC)nc3)c2)cc1 | -4.1% |
| CCN(CC)S(=O)(=O)c1ccc(NC2c3ccccc3C(=O)N2c2ccc(C)cn2)cc1 (centres unmarked) | 15% |

| SMILES | hERG current change (%, negative = inhibition) at 10uM |
| --- | --- |
| CCOC(=O)CN1C(=O)S/C(=C/c2cc(C)n(-c3ccccn3)c2C)C1=O | -8.1% |
| O=C(NCc1ccccc1Cl)C1CCC(CNc2c(N3CCCCC3)c(=O)c2=O)CC1 (centres unmarked) | 14.6% |
| CN1CCN(c2nc3c(c(=O)n(C)c(=O)n3C)n2CCSc2nnnn2-c2ccccc2)CC1 | 0.637% |
| COc1ccc(OC)c(Nc2nc(NCCO)c3ccccc3n2)c1.Cl | -44.4% |
| CCN=C1SC(CC(=O)Nc2ccccc2OCC)C(=O)N1CC (centres unmarked) | -8.98% |
| COc1ccc2[nH]c(=O)c(CN(C(=O)c3cccnc3)c3cc(C)ccc3C)cc2c1 | -0.807% |
| Cc1ccc2c(N)c(C(=O)N(c3ccccc3)c3ccccc3)sc2n1 | 33.7% |
| O=C(NNC(=O)c1ccccc1-n1cccc1)c1ccc(F)cc1 | 18.2% |
| O=C1CCC/C(=N\NC(=O)NC2CCCCC2)C1 | -13.4% |
| O=C(c1c[nH]c2ccccc12)N1CCOCC1 | 8.48% |
| CCc1cc2cc(C)ccc2nc1SCC(=O)NNC(=O)c1ccco1 | 21.9% |
| COc1ccccc1NC(=O)COC(=O)/C=C/c1ccccc1[N+](=O)[O-] | 4.7% |
| Cc1c(NC(=O)c2cc(-c3ccco3)on2)c(=O)n(-c2ccccc2)n1C | 14.5% |
| CC1CCc2c(sc(NC(=O)C3c4ccccc4Oc4ccccc43)c2C(N)=O)C1 (centres unmarked) | 2.73% |
| CC(=O)c1c(C)[nH]c(-c2ccccc2)c1C | 1.07% |
| CC(OC(=O)CC1CCCCC1)C(=O)Nc1ccc(S(N)(=O)=O)cc1 (centres unmarked) | -11.6% |
| O=C(CNC(=O)c1cnccn1)Nc1ccc(F)c(F)c1F | 20.8% |
| N#CC1(NC(=O)CSc2nnc(COc3ccccc3F)n2N)CCCCC1 | -0.0615% |
| Cc1ccc(CNC(=O)COC(=O)[C@@H]2CC(O)CN2S(=O)(=O)c2ccc3c(c2)OCCO3)cc1 (some centres unmarked) | -16.8% |
| CCCCn1c(N)c(N(CC)C(=O)CSCC(=O)Nc2ccc(OC)cc2)c(=O)[nH]c1=O | 21.6% |
